# According to the supplement of paper PMC8728848:
# The other results are listed elsewhere or left out.
# B1: PRKCE (Homo sapiens), Q02156 (protein)
# chain: MVVFNGLLKIKICEAVSLKPTAWSLRHAVGPRPQTFLLDPYIALNVDDSRIGQTATKQKTNSPAWHDEFVTDVCNGRKIELAVFHDAPIGYDDFVANCTIQFEELLQNGSRHFEDWIDLEPEGRVYVIIDLSGSSGEAPKDNEERVFRERMRPRKRQGAVRRRVHQVNGHKFMATYLRQPTYCSHCRDFIWGVIGKQGYQCQVCTCVVHKRCHELIITKCAGLKKQETPDQVGSQRFSVNMPHKFGIHNYKVPTFCDHCGSLLWGLLRQGLQCKVCKMNVHRRCETNVAPNCGVDARGIAKVLADLGVTPDKITNSGQRRKKLIAGAESPQPASGSSPSEEDRSKSAPTSPCDQEIKELENNIRKALSFDNRGEEHRAASSPDGQLMSPGENGEVRQGQAKRLGLDEFNFIKVLGKGSFGKVMLAELKGKDEVYAVKVLKKDVILQDDDVDCTMTEKRILALARKHPYLTQLYCCFQTKDRLFFVMEYVNGGDLMFQIQRSRKFDEPRSRFYAAEVTSALMFLHQHGVIYRDLKLDNILLDAEGHCKLADFGMCKEGILNGVTTTTFCGTPDYIAPEILQELEYGPSVDWWALGVLMYEMMAGQPPFEADNEDDLFESILHDDVLYPVWLSKEAVSILKAFMTKNPHKRLGCVASQNGEDAIKQHPFFKEIDWVLLEQKKIKPPFKPRIKTKRDVNNFDQDFTREEPVLTLVDEAIVKQINQEEFKGFSYFGEDLMP
# How the values were obtained:
# Assay in all cases: glycan array binding signal (z-score within array); higher = stronger binding
# Conditions in all cases: glycan notation: IUPAC condensed, linker removed
# [1] = target: Man(a1-2)Man(a1-3)[Man(a1-2)Man(a1-6)]Man(a1-6)[Man(a1-2)Man(a1-2)Man(a1-3)]Man(b1-4)GlcNAc(b1-4)GlcNAc
# Outline: (§1)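 Glycan array binding is given as a within-array Z-score, which can be read as non-binding when negative. The arrays, 3228 of them, came from the Consortium for Functional Glycomics database and were retained only where the protein sequence was available. Z-scores were averaged across arrays of the same protein sequence at different concentrations or buffers and across linkers.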
# [2] = target: Man(a1-2)Man(a1-3)[Man(a1-6)]Man(a1-6)[Man(a1-2)Man(a1-3)]Man(b1-4)GlcNAc(b1-4)GlcNAc
# Outline: as §1
# [3] = target: Man(a1-2)Man(a1-6)[Man(a1-3)]Man(a1-6)[Man(a1-2)Man(a1-2)Man(a1-3)]Man
# Outline: as §1
# [4] = target: Man(a1-2)Man(a1-6)[Man(a1-3)]Man(a1-6)[Man(a1-2)Man(a1-2)Man(a1-3)]Man(b1-4)GlcNAc(b1-4)GlcNAc
# Outline: as §1
# [5] = target: Man(a1-3)[Man(a1-6)]Man
# Outline: as §1
# [6] = target: Man(a1-3)[Man(a1-6)]Man(a1-6)[Man(a1-2)Man(a1-3)]Man(b1-4)GlcNAc(b1-4)GlcNAc
# Outline: as §1
# [7] = target: Man(a1-3)[Man(a1-6)]Man(a1-6)[Man(a1-3)]Man
# Outline: as §1
# [8] = target: Man(a1-3)[Man(a1-6)]Man(a1-6)[Man(a1-3)]Man(b1-4)GlcNAc(b1-4)GlcNAc
# Outline: as §1
# [9] = target: Man(a1-3)[Man(a1-6)]Man(b1-4)GlcNAc(b1-4)GlcNAc
# Outline: as §1
# [10] = target: Man(a1-3)[Man(a1-6)]Man(b1-4)GlcNAc(b1-4)[Fuc(a1-6)]GlcNAc
# Outline: as §1
# [11] = target: Man(a1-6)Man
# Outline: as §1
# [12] = target: Man(b1-4)GlcNAc
# Outline: as §1
# [13] = target: Neu5Ac(a2-3)Gal
# Outline: as §1
# [14] = target: Neu5Ac(a2-3)Gal(b1-3)GalNAc
# Outline: as §1
# [15] = target: Neu5Ac(a2-3)Gal(b1-3)GalNAc(b1-3)Gal(a1-4)Gal(b1-4)Glc
# Outline: as §1
# [16] = target: Neu5Ac(a2-3)Gal(b1-3)GalNAc(b1-4)[Neu5Ac(a2-3)]Gal(b1-4)Glc
# Outline: as §1
# [17] = target: Neu5Ac(a2-3)Gal(b1-3)GalNAc(b1-4)[Neu5Ac(a2-8)Neu5Ac(a2-3)]Gal(b1-4)Glc
# Outline: as §1
# [18] = target: Neu5Ac(a2-3)Gal(b1-3)GalNAc6S
# Outline: as §1
# [19] = target: Neu5Ac(a2-3)Gal(b1-3)GlcNAc
# Outline: as §1
# [20] = target: Neu5Ac(a2-3)Gal(b1-3)GlcNAc(b1-2)Man(a1-3)[GlcNAc(b1-4)][Neu5Ac(a2-3)Gal(b1-3)GlcNAc(b1-2)Man(a1-6)]Man(b1-4)GlcNAc(b1-4)GlcNAc
# Outline: as §1
# [21] = target: Neu5Ac(a2-3)Gal(b1-3)GlcNAc(b1-3)Gal(b1-3)GlcNAc
# Outline: as §1
# [22] = target: Neu5Ac(a2-3)Gal(b1-3)GlcNAc(b1-3)Gal(b1-4)GlcNAc
# Outline: as §1
# [23] = target: Neu5Ac(a2-3)Gal(b1-3)GlcNAc(b1-3)GalNAc
# Outline: as §1
# [24] = target: Neu5Ac(a2-3)Gal(b1-3)GlcNAc(b1-6)GalNAc
# Outline: as §1
# [25] = target: Neu5Ac(a2-3)Gal(b1-3)GlcNAc6S
# Outline: as §1
# [26] = target: Neu5Ac(a2-3)Gal(b1-3)[Fuc(a1-4)]GlcNAc
# Outline: as §1
# [27] = target: Neu5Ac(a2-3)Gal(b1-3)[Fuc(a1-4)]GlcNAc(b1-3)Gal(b1-3)[Fuc(a1-4)]GlcNAc
# Outline: as §1
# [28] = target: Neu5Ac(a2-3)Gal(b1-3)[Fuc(a1-4)]GlcNAc(b1-3)Gal(b1-4)[Fuc(a1-3)]GlcNAc
# Outline: as §1
# [29] = target: Neu5Ac(a2-3)Gal(b1-3)[Neu5Ac(a2-3)Gal(b1-4)]GlcNAc
# Outline: as §1
# [30] = target: Neu5Ac(a2-3)Gal(b1-3)[Neu5Ac(a2-6)]GalNAc
# Outline: as §1
binder,measurement,setting,value
B1,glycan array binding signal (z-score),[1],0.322
same,glycan array binding signal (z-score),[2],-0.026
same,glycan array binding signal (z-score),[3],-0.29
same,glycan array binding signal (z-score),[4],-0.361
same,glycan array binding signal (z-score),[5],-0.374
same,glycan array binding signal (z-score),[6],-0.333
same,glycan array binding signal (z-score),[7],-0.076
same,glycan array binding signal (z-score),[8],-0.385
same,glycan array binding signal (z-score),[9],-0.361
same,glycan array binding signal (z-score),[10],-0.239
same,glycan array binding signal (z-score),[11],-0.269
same,glycan array binding signal (z-score),[12],-0.416
same,glycan array binding signal (z-score),[13],-0.388
same,glycan array binding signal (z-score),[14],0.424
same,glycan array binding signal (z-score),[15],-0.113
same,glycan array binding signal (z-score),[16],-0.179
same,glycan array binding signal (z-score),[17],-0.213
same,glycan array binding signal (z-score),[18],-0.364
same,glycan array binding signal (z-score),[19],-0.306
same,glycan array binding signal (z-score),[20],-0.424
same,glycan array binding signal (z-score),[21],0.144
same,glycan array binding signal (z-score),[22],-0.349
same,glycan array binding signal (z-score),[23],1.98
same,glycan array binding signal (z-score),[24],0.17
same,glycan array binding signal (z-score),[25],0.48
same,glycan array binding signal (z-score),[26],-0.277
same,glycan array binding signal (z-score),[27],-0.349
same,glycan array binding signal (z-score),[28],-0.386
same,glycan array binding signal (z-score),[29],-0.429
same,glycan array binding signal (z-score),[30],0.973
